Results published in publication PMC4336329 (PLoS ONE, 2015).
Screen size: about 310,000 compounds; about 14,000 (4.5%) showed an effect of 50% or more. Effects have a minus sign here. This is one part of the list.

These compounds were tested against human ether-à-go-go-related gene (hERG) potassium channel (human, UniProt Q12809) (assay: primary screen, population patch clamp on CHO cells stably expressing hERG).
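Note: peak tail current of the secondary pulse compared with the same well before compound.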

human ether-à-go-go-related gene (hERG) potassium channel, sequence (Q12809 whole entry, looked up): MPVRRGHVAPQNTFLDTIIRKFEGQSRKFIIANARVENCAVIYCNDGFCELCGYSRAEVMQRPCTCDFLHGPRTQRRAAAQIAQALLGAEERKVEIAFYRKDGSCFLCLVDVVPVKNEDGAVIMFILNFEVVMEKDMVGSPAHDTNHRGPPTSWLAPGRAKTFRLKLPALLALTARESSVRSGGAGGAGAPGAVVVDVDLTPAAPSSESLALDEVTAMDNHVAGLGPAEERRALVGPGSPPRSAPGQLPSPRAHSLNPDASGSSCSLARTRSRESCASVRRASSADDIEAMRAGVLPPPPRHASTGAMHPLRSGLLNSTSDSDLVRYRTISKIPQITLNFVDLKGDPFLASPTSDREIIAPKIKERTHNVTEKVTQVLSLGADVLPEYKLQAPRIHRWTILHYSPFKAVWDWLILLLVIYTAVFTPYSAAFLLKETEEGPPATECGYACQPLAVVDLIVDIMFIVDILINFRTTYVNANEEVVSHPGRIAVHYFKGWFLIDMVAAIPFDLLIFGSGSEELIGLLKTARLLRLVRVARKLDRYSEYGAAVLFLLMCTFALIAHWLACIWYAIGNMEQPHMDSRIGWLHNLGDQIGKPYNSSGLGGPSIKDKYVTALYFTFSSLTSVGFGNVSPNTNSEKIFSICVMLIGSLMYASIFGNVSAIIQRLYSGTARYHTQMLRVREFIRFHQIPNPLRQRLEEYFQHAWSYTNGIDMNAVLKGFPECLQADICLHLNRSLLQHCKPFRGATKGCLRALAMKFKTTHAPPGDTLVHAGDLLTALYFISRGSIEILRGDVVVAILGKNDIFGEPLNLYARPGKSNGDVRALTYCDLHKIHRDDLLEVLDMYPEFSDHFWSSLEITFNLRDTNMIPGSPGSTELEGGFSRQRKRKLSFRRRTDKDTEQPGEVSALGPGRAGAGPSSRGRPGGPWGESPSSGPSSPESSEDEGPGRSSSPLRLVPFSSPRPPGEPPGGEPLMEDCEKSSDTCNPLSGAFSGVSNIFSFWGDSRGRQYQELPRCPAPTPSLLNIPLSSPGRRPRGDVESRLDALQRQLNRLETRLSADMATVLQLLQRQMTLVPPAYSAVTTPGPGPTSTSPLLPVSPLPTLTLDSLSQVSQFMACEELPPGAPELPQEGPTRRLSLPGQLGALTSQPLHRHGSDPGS

SMILES	hERG current change (%, negative = inhibition) at 10uM [%]
COCCN1C(=O)N[C@@H](c2ccccc2)C(C(=O)OC)=C1C	12.6
CC(=O)c1ccc(NC(=O)c2ccc(C)c(S(=O)(=O)N3CCOCC3)c2)cc1	2.2
O=C(N/C(=C/c1ccccc1)C(=O)N1CCCCC1)c1ccc(Br)o1	-7.64
Cc1c(C(=O)Nc2ccccn2)oc2c(Cl)cccc12	-3.36
CCC(C)c1ccc(NC(=S)NC(C)C2CCCO2)cc1 (stereo not shown)	-6.84
S=C(Nc1ccc(Br)cc1)N1CCCC1	2.38
CCCNC(=O)C(Cc1ccccc1C)NC(=O)c1ccc(C#N)cc1 (stereo not shown)	3.89
CCn1nc(C)c(CNC(=O)CC2C(=O)NCCN2CC(C)C)c1C (stereo not shown)	11.7
O=C(NCCCN1CCOCC1)c1ccc(CS(=O)(=O)Cc2ccc(Cl)cc2)o1	4.4
COc1ccc(C2CC(=O)c3sc(N)nc3C2)cc1 (stereo not shown)	2.43
COc1ccc(N2C(N)=NC(N)=NC2(C)C)cc1.Cl	2.62
COc1cc(/C=N/N=C(/C(=O)c2ccccc2)c2ccccc2)cc(OC)c1O	2.28
Cc1onc(-c2ccccc2Cl)c1C(=O)N1CC(C)CC(C)C1 (stereo not shown)	7.96
N#Cc1ccc(C(=O)N2CCN(c3ncccn3)CC2)cc1	-18.3
O=C(CSc1ccccc1)NC(=O)NCc1ccccc1	5.87
Cc1cc(-c2nnc(SCC(=O)Nc3ccccc3F)n2N)n[nH]1	13.8
Cc1ccsc1C(=O)OCC(=O)c1ccc(OC(F)F)cc1	-0.51
COc1cc2nc(CN3CCN(S(=O)(=O)c4ccc(C)c(C)c4)CC3)[nH]c(=O)c2cc1OC	-16.8
CNC(=S)N(CCO)Cc1cc2cc3c(cc2[nH]c1=O)OCO3	24
CC(=O)c1cccc(S(=O)(=O)Nc2c(C)nn(C)c2C)c1	7.46
CCS(=O)(=O)C(=C1NCCO1)S(=O)(=O)CC	-10.7
COc1ccc(C)cc1NC(=O)NC(C)c1ccncc1 (stereo not shown)	10.2

SMILES	hERG current change (%, negative = inhibition) at 10uM [%]
CC1CCCCC1NC(=O)CN1c2cccc3cccc(c23)S1(=O)=O (stereo not shown)	13.2
O=C(CN(c1ccc2c(c1)OCCO2)S(=O)(=O)c1ccccc1)N1CCN(Cc2ccccc2)CC1	-34.7
Cc1cc(Br)ccc1OCCCCNCCO.O=C(O)C(=O)O	-28.1
CC1CCC(C(C)C)C(OC(=O)Cn2c(COc3ccccc3)[n+](C)c3ccccc32)C1.[Cl-] (stereo not shown)	-80.4
O=C(CNCc1ccc(Cl)cc1)Nc1ccc2c(c1)OCCO2.O=C(O)C(=O)O	-9.59
CCc1noc(C)c1C(=O)OCC(=O)NC(C)c1ccccc1 (stereo not shown)	-12.5
CSc1ncccc1C(=O)N1CCCC(Nc2ccc(C)c(C)c2)C1 (stereo not shown)	-4.42
O=Nc1c(-c2ccccc2)[nH]n(-c2ccccc2)c1=O	7.97
CCCc1cc(=O)n2[nH]c(C)cc2n1	-17.3
COc1ccc(N2CCN(C3CCCN(S(=O)(=O)c4ccc(C)cc4C)C3)CC2)cc1 (stereo not shown)	-35.8
O=C(Nc1cccc(S(=O)(=O)N2CCOCC2)c1)[C@@H]1CCCN1S(=O)(=O)c1ccc(Cl)cc1	-62.8
CCOC(=O)N1CCN(C(=O)c2ccc3c(c2)N(Cc2ccc(F)cc2)CCS3)CC1	-46.3
Cc1ccc(Cn2c(=N)c(C(=O)NC3CCCC3)cc3c(=O)n4ccccc4nc32)cc1	-92.7
CN(C)CCCN1CC(C(=O)O)CC1=O (stereo not shown)	13.4
Cc1ccc(N2C(=O)NC(NC(=O)C(C)(C)C)(C(F)(F)F)C2=O)cc1C (stereo not shown)	0.171
CCS(=O)(=O)Nc1c(C(=O)OC)[nH]c2ccccc12	7.76
CC1(C)CC(=O)C=C(c2ccc(Oc3ccccc3)cc2)C1	3.74
Cc1nnc2ccc(-c3ccc(NS(C)(=O)=O)cc3)nn12	-16
Cn1c(=O)n(C)c2cc(N3CCCCC3)c(NC(=O)c3cccc(Cl)c3)cc21	14.8
O=c1[nH]c(-c2ccccc2)cs1	-2.38
CC1CCCN(CC(=O)Nc2cc(S(=O)(=O)N3CCOCC3)ccc2N2CCCC2)C1 (stereo not shown)	-9.54
COC(=O)C1=CN(Cc2ccccc2)C=C(C(=O)OC)C1c1ccc(OC)c(OC)c1	-6.14

SMILES	hERG current change (%, negative = inhibition) at 10uM [%]
Cc1[nH]n(-c2ccccc2)c(=S)c1C=Nc1cccc([N+](=O)[O-])c1	7.1
CCN(CC)C(=O)/C(=C/c1cccc([N+](=O)[O-])c1)NC(=O)c1ccco1	-25.8
CC(=O)c1sc(NC(=O)c2ccccc2C)nc1C	26.2
CCOC(=O)c1nnc(-c2ccc(C)cc2)nc1Sc1ccccc1Cl	11
CCOc1ccc(C(Nc2cccnc2)c2cc(Cl)c3cccnc3c2O)cc1 (stereo not shown)	21.8
O=[N+]([O-])c1ccc(-n2cccn2)c(-c2nn[nH]n2)c1	22.4
O=C(c1ccccc1Br)N1CCN(c2ccc([N+](=O)[O-])c(N3CCOCC3)c2)CC1	-11.5
C=CCn1c(SC(C)C(=O)Nc2ccc(F)c(F)c2F)nnc1C1CC1 (stereo not shown)	-36.8
CN1CCN(CCCN(Cc2ccco2)C(=S)Nc2ccc(Cl)cc2)CC1	-69.6
COc1ccc(OC)c(C2C(C(=O)Nc3cccnc3)=C(C)NC3=C2C(=O)CCC3)c1 (stereo not shown)	9.63
COc1ccc(C2C(=O)c3ccccc3C2=O)cc1	0.785
O=C(CCC(=O)c1ccc[nH]1)c1ccc(Cl)cc1	-5.4
Cc1cc(C)cc(N(C(=O)c2nsc(Cl)c2Cl)C(C(=O)NC2CCCC2)c2ccc(O)cc2)c1 (stereo not shown)	-5.78
O=C(COc1ccccc1[N+](=O)[O-])NCC1(N2CCCCC2)CCCCC1	-43.2
CCCCC(=O)Nc1ccc(C)c(O)c1	11.9
CN(C)CCCNc1oc(-c2ccccc2Cl)nc1S(=O)(=O)c1ccc(F)cc1	-59.9
Cc1cccc(C(=O)NC(=S)N2CCc3ccccc3C2)c1	17.7
CC(C)CC(=O)Nc1nnc(S(=O)(=O)N2CCc3ccccc32)s1	-6.97
CC(CCc1ccccc1)NC(=O)c1ccccc1C(=O)O (stereo not shown)	8.15
O=C(N/N=C/c1ccccn1)c1ccc2nc[nH]c2c1	4.95
Cc1ccnc(NS(=O)(=O)c2cccc3nsnc23)c1.Cl	6.56
Cc1ccccc1-n1c(-c2ccc(Cl)cc2)cnc1SCC(=O)NC1CCS(=O)(=O)C1 (stereo not shown)	-28.7

SMILES	hERG current change (%, negative = inhibition) at 10uM [%]
CCN(C(=O)Cn1cnc2c1c(=O)n(C)c(=O)n2C)C1CCCCC1	3.34
CN(C)c1ccc(-c2nn3c(C4CCCCC4)nnc3s2)cc1	-0.527
CCOC(=O)c1c(NC(=O)CSc2nnc(-c3c[nH]c4ccccc34)n2CCOC)sc2c1CCCCC2	6.17
COc1cc(OC)c(-c2cc(C(=O)O)ccc2OC)c(OC)c1	22.3
COc1ccc(N2CC(C(=O)Nc3cccnc3)CC2=O)cc1 (stereo not shown)	10.1
Cc1ccc(C(=O)Nc2ccccc2-c2ccccc2)cc1S(=O)(=O)Nc1cccc(C)c1C	7.65
Cc1ccc(OCC(O)Cn2c(N3CCCCC3)nc3c2c(=O)[nH]c(=O)n3C)cc1C (stereo not shown)	16
S=c1[nH]c2ccccc2n2cccc12	14.1
Cc1ccc(C(CC(=O)N2CCCC2)c2ccccc2)c(O)c1C (stereo not shown)	-57.9
O=C(N/N=C/c1ccccn1)c1ccc(Br)cc1	-26.8
CCOc1cccc(NC(=O)C(Cc2cccs2)c2nn[nH]n2)c1 (stereo not shown)	4.63
Cc1ccc(C)c(N2N=C(C(=O)Nc3nccs3)CCC2=O)c1	15.5
COc1cc(C(=O)OCC(=O)c2c[nH]c3ccccc23)ccc1OCC(=O)N1CCOCC1	5.92
COc1cc(NC(=O)C2CCCN(S(=O)(=O)c3ccc4c(c3)CCCN4C(C)=O)C2)cc(OC)c1 (stereo not shown)	-17.5
COc1ccc(C(=O)C2CCCN(Cc3cccn3-c3ccccn3)C2)c(OC)c1 (stereo not shown)	-74.6
COc1ccc(OC(=O)c2cccc([N+](=O)[O-])c2)c(C(=O)/C=C/c2cccs2)c1	3.99
COc1ccc(N2CCN(C(=O)CCS(=O)(=O)c3ccc4c(c3)NC(=O)CO4)CC2)cc1	-6.77
COc1ccc(CCNc2ccc(C(CC(N)=O)NC(=O)Cc3cccc4ccccc34)cc2[N+](=O)[O-])cc1 (stereo not shown)	4.29
COc1ccc(/C=C/C(=O)NC(=S)N2CCN(c3ccccn3)CC2)cc1OC	3.87
Cc1ccc(C)c(CN2CCC(CNC(=O)Nc3ccc(F)c(Cl)c3)CC2)c1	-65
COc1cccc(C(C(=O)NC2CCCC2)N(Cc2ccco2)C(=O)c2ccco2)c1OC (stereo not shown)	-2.07
Cc1nn(Cc2ccc(Cl)cc2Cl)c(C)c1NC(=O)Cn1nc([N+](=O)[O-])c(Cl)c1C	1.33
